Source: PubChem BioAssay AID504332 (National Center for Advancing Translational Sciences (NCATS), 2011)
Values joined by “and” are separate entries in the source; they are usually repeats but may differ in a detail not shown here. Identical values can stand only once. Screen size: about 350,000 compounds; about 31,000 (8.9%) were called active. Inconclusive results, whose numbers are uncertain, are shown with a selection of clear calls. The call rests on the fitted dose curve; in most records, active means well fitted inhibition curve with a large enough effect; inconclusive means small, poorly fitted or top-dose-only effect; inactive means no such curve, though single readings can be large or run the other way. Where the call is inconclusive, the potency comes from a doubtful curve fit.

Each compound was assayed against Histone-lysine N-methyltransferase EHMT2 (Homo sapiens) (UniProt Q96KQ7) (assay: qHTS Assay for Inhibitors of Histone Lysine Methyltransferase G9a). Details: G9a H3K9 monomethylation, AlphaScreen, 2 h; activity, negative = inhibition: at 59 µM (top of the series) unless noted.
Chain of UniProt Q96KQ7 (Q96KQ7 whole entry, looked up): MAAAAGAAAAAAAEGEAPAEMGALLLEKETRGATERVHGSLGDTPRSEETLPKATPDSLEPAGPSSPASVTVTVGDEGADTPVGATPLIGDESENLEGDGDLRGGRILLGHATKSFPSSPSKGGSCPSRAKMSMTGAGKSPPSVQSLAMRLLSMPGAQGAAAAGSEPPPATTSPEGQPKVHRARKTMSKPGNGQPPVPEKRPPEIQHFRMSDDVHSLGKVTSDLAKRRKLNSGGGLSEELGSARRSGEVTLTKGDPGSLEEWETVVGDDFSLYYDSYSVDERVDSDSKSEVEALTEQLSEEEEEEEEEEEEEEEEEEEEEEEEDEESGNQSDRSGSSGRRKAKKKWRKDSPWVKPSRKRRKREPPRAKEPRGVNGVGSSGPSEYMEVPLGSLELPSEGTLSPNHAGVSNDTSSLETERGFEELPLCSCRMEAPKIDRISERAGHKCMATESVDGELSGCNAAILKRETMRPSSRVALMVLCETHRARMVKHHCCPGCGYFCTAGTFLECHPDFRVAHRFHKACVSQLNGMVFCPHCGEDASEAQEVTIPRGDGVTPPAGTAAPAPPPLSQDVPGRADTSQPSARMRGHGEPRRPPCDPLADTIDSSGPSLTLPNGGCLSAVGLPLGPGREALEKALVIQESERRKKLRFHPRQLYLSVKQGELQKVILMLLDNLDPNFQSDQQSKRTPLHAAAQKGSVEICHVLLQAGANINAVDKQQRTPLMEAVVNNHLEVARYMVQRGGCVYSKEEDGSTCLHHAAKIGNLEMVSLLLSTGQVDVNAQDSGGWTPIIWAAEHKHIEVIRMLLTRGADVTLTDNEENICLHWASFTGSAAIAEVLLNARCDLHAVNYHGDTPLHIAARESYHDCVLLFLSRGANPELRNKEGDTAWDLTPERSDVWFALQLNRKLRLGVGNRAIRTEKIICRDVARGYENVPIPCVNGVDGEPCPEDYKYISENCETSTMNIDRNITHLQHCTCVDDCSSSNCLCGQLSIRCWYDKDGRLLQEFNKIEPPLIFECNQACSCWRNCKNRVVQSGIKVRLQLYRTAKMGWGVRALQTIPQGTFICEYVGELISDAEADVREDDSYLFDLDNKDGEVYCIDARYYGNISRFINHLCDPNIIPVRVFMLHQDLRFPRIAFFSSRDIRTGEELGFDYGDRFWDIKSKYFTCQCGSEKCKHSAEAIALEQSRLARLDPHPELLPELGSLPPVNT
In short: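 G9a (20 nM) preincubated 15 min RT with compounds, then 500 nM biotinylated H3K9 peptide and 20 uM SAM added; 2 h RT reaction. Monomethyl-H3K9 product detected by AlphaScreen with anti-H3K9me1 antibody, streptavidin donor and anti-rabbit IgG acceptor beads.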
Further: nearly all actives have a fitted effect of over 75% in size.
On the % scale 0 is the no-effect control and ±100 the full control effect; potency means the concentration at half of the fitted maximal effect; tags describe the fitted curve by direction and shape.

Question: Which Potency does the source give for COc1ccc(-c2cn(-c3ccccc3)c3[n+]2CCS3)cc1 here?
Answer: The Potency was “inactive”.

Question: O=C(c1cc2ccccc2o1)N1CCN(S(=O)(=O)/C=C/c2ccccc2)CC1 was tested. Which Potency did it give?
Answer: The Potency was inconclusive: 35.5 µM [inhibitor, partial curve, poor fit].

Question: How did the activity, negative = inhibition turn out when O=C1c2ccc(O)c(O)c2C(=O)c2c(O)ccc(O)c21 was run?
Answer: Its activity, negative = inhibition is inconclusive: -154% [inhibitor] [at 2.33 µM].

Question: Which Potency does the source give for CN(CC(=O)Nc1ccccc1Br)C(=O)c1cc([N+](=O)[O-])ccc1N1CCOCC1 here?
Answer: Its Potency is inconclusive: 25.1 µM [inhibitor, partial curve, poor fit].

Question: With O=C(Nc1ccc(Cl)cc1)N1CCc2ccccc2C1 as the compound, how does the Potency read?
Answer: The Potency was inconclusive: 10 µM [inhibitor, partial curve, poor fit].

Question: How did the Potency turn out when COc1ccc(CC(=O)N(C)CC(=O)Nc2cccc(F)c2)cc1S(=O)(=O)N1CCOCC1 was run?
Answer: Its Potency is inconclusive: 5.01 µM [inhibitor, partial curve, poor fit].

Question: For CN1CCN(c2nc(-c3ccccc3O)nc3ccccc23)CC1, which Potency is on record?
Answer: Its Potency is active: 31.6 µM.

Question: COc1ccc(C(=S)Nc2ccc(C)cc2)cc1 was tested. Which Potency did it give?
Answer: The Potency was active: 10 µM.

Question: How did the “activity, negative = inhibition” value turn out when Cc1ccc(-n2nc3c(N4CCC(C(=O)NC(C)C)CC4)nnc(C)c3c2C)cc1 was run?
Answer: The value was inactive: 4.25%.

Question: Which Potency does the source give for O=C(NCCOc1ccccc1F)c1cccc(S(=O)(=O)N2CCN(c3ccccc3)CC2)c1 here?
Answer: Its Potency is active: 39.8 µM.

Question: C#CCOCCOCCOCCNc1nc(N2CCOCC2)nc(N2CCN(C(=O)[C@H](C)n3cc(CCCN=C(N)N)nn3)CC2)n1 was tested. Which Potency did it give?
Answer: The Potency was inconclusive: 89.1 µM [inhibitor, single point].

Question: With Fc1cccc(Cl)c1Cn1nnc2c(NCc3ccccn3)ncnc21 as the compound, how does the “activity, negative = inhibition” value read?
Answer: Its value is inactive: 1.55%.

Question: Cc1cc(C)cc(NC(=O)c2cc(S(=O)(=O)N3CCCCCC3)cn2C)c1 was tested. Which “activity, negative = inhibition” value did it give?
Answer: Its value is inactive: -4.17%.

Question: O=C(CC(Nc1ccccc1)C(=O)O)c1ccccc1 (centres undefined) was tested. Which Potency did it give?
Answer: Its Potency is inconclusive: 25.1 µM [inhibitor, single point].

Question: How did the Potency turn out when NN(CCO)C(=S)Nc1ccc(Cl)cc1 was run?
Answer: Its Potency is active: 11.2 µM.

Question: For Cc1c(C(=O)NNC(=S)Nc2cccc(Cl)c2)nnn1-c1ccccc1, which Potency is on record?
Answer: Its Potency is active: 11.2 µM.

Question: Which Potency does the source give for Cc1[nH]c2ccccc2c1N=Nc1ccccc1C(=O)O here?
Answer: The Potency was inconclusive: 20 µM [inhibitor, single point].

Question: Which activity, negative = inhibition does the source give for COc1ccc2cc(C(=O)NCc3ccco3)c(=Nc3ccc(C(=O)O)cc3)oc2c1 here?
Answer: The activity, negative = inhibition was inconclusive: -77.9% [inhibitor].

Question: How did the Potency turn out when Cc1ccc(OCc2nnc(SCC(=O)N3c4ccccc4Sc4ccc(Cl)cc43)o2)cc1 was run?
Answer: The Potency was inconclusive: 39.8 µM [inhibitor, full curve].

Question: How did the Potency turn out when COc1ccccc1CCC(=O)Nc1ccc2c(c1)CN(Cc1ccc(C)o1)CC2 was run?
Answer: The Potency was inconclusive: 89.1 µM [inhibitor, single point].

Question: O=C(Cn1cnc2cc([N+](=O)[O-])ccc2c1=O)Nc1ccc2c(c1)OCO2 was tested. Which Potency did it give?
Answer: The Potency was active: 39.8 µM.

Question: For Cc1ccc(NC(=O)Cn2c(-c3ccc4c(c3)OCO4)cn(-c3ccccc3)c2=O)cc1C, which Potency is on record?
Answer: The Potency was inconclusive: 1.26 µM [inhibitor, full curve].

Question: Cc1ccc(CN(C)C(=O)c2cc(Br)c(Br)s2)o1 was tested. Which Potency did it give?
Answer: The Potency was active: 44.7 µM.

Question: Cc1nc2cnc(OCc3ccccc3)nc2n(Cc2ccc(F)cc2)c1=O was tested. Which activity, negative = inhibition did it give?
Answer: The activity, negative = inhibition was inactive: 0.717% [at 12.7 µM].

Question: Which “activity, negative = inhibition” value does the source give for COC(=O)c1ccc(-n2c(C)nc(=O)c(-c3ccccc3)c2C)cc1 here?
Answer: The value was inactive: 5.61%.

Question: For Cc1c(Cl)cccc1-n1ncc(C(=O)Nc2ccc3c(c2)OCCO3)c1C1CCN(C(=O)OC(C)(C)C)CC1, which Potency is on record?
Answer: Its Potency is inconclusive: 3.55 µM [inhibitor, partial curve, poor fit].

Question: How did the “activity, negative = inhibition” value turn out when CCN(CC)S(=O)(=O)c1ccc2c(c1)N(CC(=O)N1CCN(c3cccc(C(F)(F)F)c3)CC1)C(=O)CO2 was run?
Answer: The value was inactive: -9.19%.

Question: CC1C(=O)OC(c2ccc(Cl)cc2)C(C)(C)C1=O (centres undefined) was tested. Which Potency did it give?
Answer: Its Potency is inconclusive: 79.4 µM [inhibitor, single point].

Question: Which “activity, negative = inhibition” value does the source give for CCCNC(=O)N1CCN(Cc2ccco2)CC1 here?
Answer: Its value is inactive: -4% [at 102 µM].

Question: With Cc1cccc(NC(=S)Nc2cccc(C(F)(F)F)c2)n1 as the compound, how does the “activity, negative = inhibition” value read?
Answer: Its value is inactive: 7.12%.

Question: Which “activity, negative = inhibition” value does the source give for Nc1nnc(SCC(=O)Nc2cccc(S(N)(=O)=O)c2)s1 here?
Answer: The value was inactive: -37.4% [at 102 µM].

Question: How did the Potency turn out when COc1ccc(NC(=O)CSc2c3c(nc4ccccc24)CCCC3)c(OC)c1 was run?
Answer: Its Potency is inconclusive: 25.1 µM [inhibitor, single point].

Question: Cc1cccc(C)c1NC(=O)C(c1cccc([N+](=O)[O-])c1)N(C)C(=O)c1ccccn1 (centres undefined) was tested. Which Potency did it give?
Answer: Its Potency is inconclusive: 35.5 µM [inhibitor, partial curve, poor fit].

Question: How did the Potency turn out when Cc1[nH]n(C(N)=S)c(=O)c1N=Nc1ccc(S(=O)(=O)N2CCCC2)cc1 was run?
Answer: The Potency was inconclusive: 25.1 µM [inhibitor, single point].

Question: For COc1ccc(C(c2nnnn2Cc2cccs2)N2CCN(c3ccccc3)CC2)cc1OC (centres undefined), which Potency is on record?
Answer: Its Potency is inconclusive: 28.2 µM [inhibitor, single point].

Question: For CC1(c2nnc(-c3cccc(Cl)c3)o2)CC(c2cccc([N+](=O)[O-])c2)=NO1 (centres undefined), which Potency is on record?
Answer: The Potency was active: 44.7 µM.

Question: For Cc1ccc(S(=O)(=O)c2c(N)n(/N=C/c3ccco3)c3nc4ccccc4nc23)cc1, which Potency is on record?
Answer: The Potency was inconclusive: 50.1 µM [inhibitor, partial curve, poor fit].

Question: Which activity, negative = inhibition does the source give for Cn1c(-c2ccc(F)cc2)cnc1NCc1cccc(F)c1 here?
Answer: The activity, negative = inhibition was inactive: -0.0466% [at 0.0925 µM].

Question: For Cc1cc[n+](-c2[nH]c(=O)sc2/C=N/N=C(\[O-])c2ccncc2)cc1, which “activity, negative = inhibition” value is on record?
Answer: The value was inactive: -12.5% [at 102 µM].

Question: Which Potency does the source give for Cc1cccc(COC(=O)CCCNC(=O)c2ccc(Cl)cc2)c1 here?
Answer: The Potency was inconclusive: 14.1 µM [inhibitor, single point].

Question: For O=C1NC(Cc2ccccc2)c2nc3cc(F)ccc3c(=O)n2-c2cc(Cl)ccc21 (centres undefined), which activity, negative = inhibition is on record?
Answer: The activity, negative = inhibition was inactive: -2.94% [at 0.501 µM].

Question: For CC(C)c1ccc(C2/C(=C(\O)c3ccc4c(c3)OCCO4)C(=O)C(=O)N2CCN2CCOCC2)cc1 (centres undefined), which Potency is on record?
Answer: The Potency was inconclusive: 56.2 µM [inhibitor, partial curve, poor fit].

Question: Oc1c(Br)cc(Br)cc1-c1nc2ccccc2s1 was tested. Which “activity, negative = inhibition” value did it give?
Answer: Its value is inactive: -48%.

Question: With COc1ccc(-c2cc(=O)c3cc(OC)ccc3o2)cc1 as the compound, how does the “activity, negative = inhibition” value read?
Answer: Its value is inactive: 2.18% [at 102 µM].

Question: With NC1=NC(=Nc2ccc(S(N)(=O)=O)cc2)c2ccccc21 as the compound, how does the “activity, negative = inhibition” value read?
Answer: The value was inactive: -4.07% [at 102 µM].

Question: For CSCCC(NS(=O)(=O)c1ccc2c(c1)c(=O)n(C)c(=O)n2C)C(=O)NC1CCN(Cc2ccccc2)CC1 (centres undefined), which Potency is on record?
Answer: Its Potency is inconclusive: 25.1 µM [inhibitor, partial curve, poor fit].

Question: With O=C1/C(=C/c2cccs2)SC(=S)N1NS(=O)(=O)c1ccccc1 as the compound, how does the Potency read?
Answer: Its Potency is inconclusive: 39.8 µM [inhibitor, single point].

Question: Which Potency does the source give for COc1ccc(-c2noc(-c3ccc(NC4CCCC4)c([N+](=O)[O-])c3)n2)cc1 here?
Answer: The Potency was inconclusive: 28.2 µM [inhibitor, single point].

Question: COC(=O)c1ccccc1NC(=O)N1CSC[C@H]1C(=O)OC was tested. Which Potency did it give?
Answer: The Potency was inconclusive: 31.6 µM [inhibitor, single point].

Question: How did the activity, negative = inhibition turn out when CCOC(=O)N1CCN(C(=O)c2oc3ccc(S(=O)(=O)N4CCCCCC4)cc3c2C)CC1 was run?
Answer: Its activity, negative = inhibition is inconclusive: -64.2% [inhibitor].

Question: For Cc1ccc(CN(CC2CCCO2)C(=O)CN2C(=O)C(C(C)C)Oc3ccccc32)o1 (centres undefined), which Potency is on record?
Answer: Its Potency is inconclusive: 79.4 µM [inhibitor, partial curve, poor fit].

Question: Which Potency does the source give for Cc1cc(C(F)(F)F)nn1Cc1n[nH]c(=S)n1Cc1ccccc1 here?
Answer: The Potency was active: 1.78 µM.

Question: For COc1ccc(C(CNC(=O)C(CCSC)NC(=O)c2ccccc2OC)N2CCCCC2)cc1 (centres undefined), which Potency is on record?
Answer: The Potency was active: 31.6 µM.

Question: Which “activity, negative = inhibition” value does the source give for O=C(CN1C(=O)S/C(=C\c2ccc(F)cc2)C1=O)NCCCn1ccnc1 here?
Answer: Its value is inactive: 17.7% [at 102 µM].

Question: For Cc1ccc(-c2nc(CS(=O)CC(=O)N3CCN(c4ccccc4)CC3)c(C)o2)cc1 (centres undefined), which Potency is on record?
Answer: The Potency was “inactive and inconclusive: 79.4 µM [inhibitor, single point]”.

Question: Which Potency does the source give for Cc1ccc(C)c(-c2ccc(C(=O)O)o2)c1 here?
Answer: Its Potency is inconclusive: 44.7 µM [inhibitor, single point].

Question: For Cc1cc(C)cc(-n2cc(C(=O)O)c(=O)cc2C)c1, which Potency is on record?
Answer: The Potency was active: 28.2 µM.

Question: Which Potency does the source give for CCCNS(=O)(=O)c1ccc(CCC(=O)N2CCN(CC)CC2)cc1 here?
Answer: The Potency was inconclusive: 25.1 µM [inhibitor, partial curve, poor fit].

Question: For CCOc1ccc(OCC)c(NC(=O)CN(c2ccc(C)cc2)S(=O)(=O)c2c(C)noc2C)c1, which Potency is on record?
Answer: The Potency was inconclusive: 28.2 µM [inhibitor, partial curve, poor fit].

Question: CC1(C)CC(=O)C2=C(C1)Nc1ccccc1N=C2 was tested. Which Potency did it give?
Answer: The Potency was active: 8.91 µM.

Question: With Cc1ccc2nc3c(cc(C(=O)NCCCn4ccnc4)n3C)c(=O)n2c1 as the compound, how does the Potency read?
Answer: The Potency was inconclusive: 100 µM [inhibitor, single point].

Question: With CCCCCn1c(N2CCOCC2)nc2c1c(=O)n(CC(N)=O)c(=O)n2C as the compound, how does the Potency read?
Answer: Its Potency is inconclusive: 25.1 µM [inhibitor, single point].

Question: For Cc1nc(-c2ccc(S(=O)(=O)N3CCN(C4c5ccccc5-c5ccccc54)CC3)s2)cs1, which Potency is on record?
Answer: Its Potency is active: 56.2 µM.

Question: Which activity, negative = inhibition does the source give for C[N+](C)(C)CCO here?
Answer: The activity, negative = inhibition was inactive: -0.498% [at 2.33 µM] and inactive: 21.8% [at 12.7 µM].

Question: Which Potency does the source give for COC(=O)/C=C/c1cc(O)ccc1O here?
Answer: The Potency was active: 2.82 µM.

Question: Which Potency does the source give for O=c1c2cn(Cc3ccc(F)cc3)c3ccccc3c-2nn1Cc1ccc(F)cc1 here?
Answer: Its Potency is active: 31.6 µM.

Question: How did the Potency turn out when Cc1cc(NC(=O)CSc2nc(=O)cc(N)n2-c2ccc(C)c(C)c2)no1 was run?
Answer: Its Potency is inconclusive: 89.1 µM [inhibitor, single point].

Question: CC(=O)OC1CC2C(C)(C)C(O)CC(O)[C@@]2(C)C2CC[C@@]3(C)C(=CC(=O)OC3c3ccoc3)[C@]12C (some centres undefined) was tested. Which activity, negative = inhibition did it give?
Answer: The activity, negative = inhibition was inconclusive: -56% [inhibitor] [at 2.33 µM].

Question: COc1ccccc1CN1CCN(Cc2cc(OC)c(OC)cc2OC)CC1 was tested. Which Potency did it give?
Answer: Its Potency is active: 8.91 µM.
